Results taken from publication PMC10185812.
Results are given in words; binding and its absence hold for the method and conditions named. Binding seen in cells or lysates may run through a third protein. Some binding calls cover weakened binding; strength is not graded here. Tags and fused reporters may be left off the sequences shown.

T1: 3xFLAG-NEK1 1,160-1,286 (human) (UniProt Q96PY6)
T1 sequence: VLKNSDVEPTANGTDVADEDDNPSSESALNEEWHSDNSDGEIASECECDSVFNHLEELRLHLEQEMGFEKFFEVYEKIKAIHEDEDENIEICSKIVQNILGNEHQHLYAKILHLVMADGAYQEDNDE

T2: 3xFLAG-NEK1 379-760 (human) (UniProt Q96PY6)
T2 sequence: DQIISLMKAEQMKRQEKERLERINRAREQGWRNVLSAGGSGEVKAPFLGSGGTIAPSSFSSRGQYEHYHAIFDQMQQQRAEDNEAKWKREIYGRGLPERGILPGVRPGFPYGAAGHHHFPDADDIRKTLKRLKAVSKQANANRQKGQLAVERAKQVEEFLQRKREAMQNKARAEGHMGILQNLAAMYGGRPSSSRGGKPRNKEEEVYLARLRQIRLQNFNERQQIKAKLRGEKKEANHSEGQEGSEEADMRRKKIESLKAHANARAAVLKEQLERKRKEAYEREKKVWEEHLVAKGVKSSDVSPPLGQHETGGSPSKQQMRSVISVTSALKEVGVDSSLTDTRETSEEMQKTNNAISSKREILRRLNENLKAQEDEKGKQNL

T3: 3xFLAG-NEK1 R261H (human) (UniProt Q96PY6)
T3 sequence: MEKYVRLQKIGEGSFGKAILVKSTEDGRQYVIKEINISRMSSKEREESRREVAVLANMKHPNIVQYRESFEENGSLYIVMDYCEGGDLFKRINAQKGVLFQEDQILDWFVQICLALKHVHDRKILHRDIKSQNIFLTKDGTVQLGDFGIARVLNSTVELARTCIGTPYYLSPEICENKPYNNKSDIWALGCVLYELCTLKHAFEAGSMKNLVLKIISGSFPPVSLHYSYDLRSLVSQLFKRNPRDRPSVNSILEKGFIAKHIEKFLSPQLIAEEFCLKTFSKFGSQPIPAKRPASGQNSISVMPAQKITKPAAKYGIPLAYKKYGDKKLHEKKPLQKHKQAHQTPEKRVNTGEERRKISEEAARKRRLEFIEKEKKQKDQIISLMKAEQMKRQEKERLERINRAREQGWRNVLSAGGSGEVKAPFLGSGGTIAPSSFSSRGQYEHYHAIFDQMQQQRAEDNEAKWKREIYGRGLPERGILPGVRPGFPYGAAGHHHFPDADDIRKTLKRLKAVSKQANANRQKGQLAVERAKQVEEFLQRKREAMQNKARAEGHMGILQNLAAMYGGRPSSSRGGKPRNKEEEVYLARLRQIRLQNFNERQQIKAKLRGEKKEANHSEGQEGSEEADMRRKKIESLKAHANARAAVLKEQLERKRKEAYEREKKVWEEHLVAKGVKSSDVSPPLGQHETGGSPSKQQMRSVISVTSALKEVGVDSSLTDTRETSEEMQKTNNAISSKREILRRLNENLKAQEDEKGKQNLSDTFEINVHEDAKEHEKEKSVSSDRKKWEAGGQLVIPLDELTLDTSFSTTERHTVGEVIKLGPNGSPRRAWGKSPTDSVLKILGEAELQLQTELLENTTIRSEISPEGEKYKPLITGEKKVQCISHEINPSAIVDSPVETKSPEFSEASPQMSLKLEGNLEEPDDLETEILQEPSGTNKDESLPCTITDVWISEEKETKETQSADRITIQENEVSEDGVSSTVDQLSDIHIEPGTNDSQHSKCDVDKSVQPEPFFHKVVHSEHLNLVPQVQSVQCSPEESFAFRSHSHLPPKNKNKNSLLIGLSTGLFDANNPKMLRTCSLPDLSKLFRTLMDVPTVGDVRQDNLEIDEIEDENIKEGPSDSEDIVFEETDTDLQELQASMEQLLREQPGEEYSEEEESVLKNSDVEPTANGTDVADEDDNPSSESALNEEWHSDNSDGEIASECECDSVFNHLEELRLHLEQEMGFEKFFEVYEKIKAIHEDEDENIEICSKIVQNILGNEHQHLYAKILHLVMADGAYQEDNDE

B1: GFP-C21ORF2 (protein, UniProt O43822-1 1-256)
chain: MKLTRKMVLTRAKASELHSVRKLNCWGSRLTDISICQEMPSLEVITLSVNSISTLEPVSRCQRLSELYLRRNRIPSLAELFYLKGLPRLRVLWLAENPCCGTSPHRYRMTVLRTLPRLQKLDNQAVTEEELSRALSEGEEITAAPEREGTGHGGPKLCCTLSSLSSAAETGRDPLDSEEEATSGAQDERGLKPPSRGQFPSLSARDASSSHRGRNVLTAILLLLRELDAEGLEAVQQTVGSRLQALRGEEVQEHAE
B2: 3xHA-C21ORF2 (protein, UniProt O43822-1 1-256)
chain: B1 chain

Tests used:
Test in all cases: co-IP; ARPE-19 transiently co-transfected with tagged C21ORF2 (GFP or 3xHA) and 3xFLAG-NEK1 (full length, truncated or mutated); immunoprecipitation with anti-FLAG antibodies; washes with 500 mM NaCl, 1% Triton X-100; immunoblotting
[1] = biological target: T1, 3xFLAG-NEK1 1,160-1,286 (human)
[2] = biological target: T2, 3xFLAG-NEK1 379-760 (human)
[3] = biological target: T3, 3xFLAG-NEK1 R261H (human)

Binder | binding [1] | binding [2] | binding [3]
B1 | binds | no binding | –
B2 | – | – | binds
